Source: the supplement of paper PMC3334620
Whole data set: some 33,000 sequences, median “E-score (-0.5 to 0.5)” near -0.041, cut for the highest 2% near 0.37. This is one part of the list.

These sequences were tested against T1, Ecm22 (UniProt Q05958) (assay: PBM E-score (8-mer binding enrichment) (E-score (-0.5 to 0.5)); higher = stronger / more preferred TF binding; most listed sequences are background and not binding sites). Settings: protein concentration: 200 nM; construct: GST-full length.
T1 sequence: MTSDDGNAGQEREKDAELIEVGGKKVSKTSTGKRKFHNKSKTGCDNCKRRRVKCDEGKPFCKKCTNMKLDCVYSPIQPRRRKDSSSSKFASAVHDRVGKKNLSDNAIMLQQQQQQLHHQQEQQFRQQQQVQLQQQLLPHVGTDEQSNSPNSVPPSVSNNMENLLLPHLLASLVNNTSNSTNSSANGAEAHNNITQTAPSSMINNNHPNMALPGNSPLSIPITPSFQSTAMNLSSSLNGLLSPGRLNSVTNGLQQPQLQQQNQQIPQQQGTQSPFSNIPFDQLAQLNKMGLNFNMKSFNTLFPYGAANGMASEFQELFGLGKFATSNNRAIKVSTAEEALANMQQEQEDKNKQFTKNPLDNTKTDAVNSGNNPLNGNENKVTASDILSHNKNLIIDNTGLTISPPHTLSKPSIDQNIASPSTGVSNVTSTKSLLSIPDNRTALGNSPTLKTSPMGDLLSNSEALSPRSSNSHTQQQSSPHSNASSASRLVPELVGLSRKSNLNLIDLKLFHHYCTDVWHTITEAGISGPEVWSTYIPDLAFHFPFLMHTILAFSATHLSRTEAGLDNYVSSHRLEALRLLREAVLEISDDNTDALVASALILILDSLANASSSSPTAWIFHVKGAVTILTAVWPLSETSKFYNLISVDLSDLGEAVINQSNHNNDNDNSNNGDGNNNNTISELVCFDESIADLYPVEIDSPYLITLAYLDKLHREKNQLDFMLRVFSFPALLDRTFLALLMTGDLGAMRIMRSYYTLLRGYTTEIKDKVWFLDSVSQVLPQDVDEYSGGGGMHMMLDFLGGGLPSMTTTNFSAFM
Procedure: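 Universal 'all 10-mer' protein binding microarrays (Agilent AMADID 015681) probed with GST-tagged S. cerevisiae TFs (full-length or DBD) made by in vitro transcription/translation (PURExpress), about 100-200 nM. Bound TF was detected with fluorescent anti-GST. Each ungapped 8-mer (which stands for itself and its reverse complement) is scored by the PBM enrichment score (E-score), a modified Wilcoxon-Mann-Whitney statistic from -0.5 to +0.5, computed with the Universal PBM Analysis Suite. Scale: above 0.35 generally sequence-specific binding.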

First: CCCAACCA
Second: AGTAGTCG
The “PBM E-score” value of the first is lower: 0.0792 for the first, 0.238 for the second.

Compared with AGGAGTAC, CACCATTC is lower in “PBM E-score” value: -0.0263 for the first, -0.235 for the second.

Compared with ACCAATGA, AATTTTAT is higher in “PBM E-score” value: -0.061 for the first, 0.0365 for the second.

Going from AGTCCGAA to ATAGTTGG, the “PBM E-score” value falls from 0.0505 to -0.0165.

First: ACCGGGAC
Second: GTGACGAA
The “PBM E-score” value of the first is lower: -0.23 for the first, 0.0112 for the second.

Compared with CCCAAGGG, AATAAGAG is higher in “PBM E-score” value: -0.233 for the first, 0.084 for the second.

First: ACGTCAGT
Second: GACGTATA
The “PBM E-score” value of the first is lower: -0.0686 for the first, 0.365 for the second.

Compared with CACGCCAA, ATAAAAGC is lower in “PBM E-score” value: -0.0565 for the first, -0.14 for the second.

Going from TTACCAAA to AGTGGTTC, the “PBM E-score” value falls from -0.0993 to -0.113.

First: GATGAGGC
Second: CCTGTACG
The “PBM E-score” value of the first is lower: -0.197 for the first, 0.4 for the second.

First: AGTGTCGG
Second: CACGTCGG
The “PBM E-score” value of the first is lower: 0.0128 for the first, 0.227 for the second.

First: CAATCGGA
Second: AGAAAAGG
The “PBM E-score” value of the first is higher: 0.00797 for the first, -0.249 for the second.

Compared with ATAAACGG, TACATACA is lower in “PBM E-score” value: 0.408 for the first, 0.111 for the second.

First: GATGATAC
Second: GCTAATAA
The “PBM E-score” value of the first is lower: 0.136 for the first, 0.164 for the second.

Going from CAGGCAGG to AATCGTCA, the “PBM E-score” value rises from -0.155 to -0.00811.

Going from GCCCGCGC to CACCCCTG, the “PBM E-score” value falls from 0.0265 to -0.329.

First: ACCGTAGG
Second: CGCGTTAA
The “PBM E-score” value of the first is lower: -0.172 for the first, 0.185 for the second.

Going from CGGCGACG to CCTATCCG, the “PBM E-score” value rises from 0.0233 to 0.17.

Compared with AATCGTGA, GGGAGATA is higher in “PBM E-score” value: -0.152 for the first, -0.114 for the second.

Going from CGAACACA to AGAGAATC, the “PBM E-score” value falls from 0.12 to -0.16.

Compared with CCGATCGC, AGTATGAT is lower in “PBM E-score” value: 0.109 for the first, 0.101 for the second.

Going from TCATCGAA to CGCGGTTA, the “PBM E-score” value falls from -0.0125 to -0.0243.

Compared with ACGTTTTG, GTCTAAAA is higher in “PBM E-score” value: -0.102 for the first, -0.00822 for the second.

First: CCGGTGAG
Second: GGCGAGCA
The “PBM E-score” value of the first is lower: -0.158 for the first, -0.0165 for the second.

Compared with AAAGGTGA, GGATTGCA is lower in “PBM E-score” value: -0.145 for the first, -0.279 for the second.

Going from GCGTAAGC to CCGTGTAG, the “PBM E-score” value falls from 0.173 to 0.0955.

First: CAGCTATA
Second: CGCTAAGA
The “PBM E-score” value of the first is lower: -0.0628 for the first, 0.149 for the second.

First: ATGCATAG
Second: CTCAGTCC
The “PBM E-score” value of the first is lower: -0.191 for the first, -0.151 for the second.

Compared with CAACCATA, CGAATCAA is higher in “PBM E-score” value: 0.0611 for the first, 0.137 for the second.

First: CGCGTGCA
Second: ACTAGCAG
The “PBM E-score” value of the first is lower: -0.187 for the first, -0.0203 for the second.

First: CTGTAGTC
Second: AGCTCTAC
The “PBM E-score” value of the first is higher: 0.016 for the first, -0.162 for the second.

Going from ATACTAAG to CCTTGCCA, the “PBM E-score” value falls from -0.0705 to -0.247.

Going from GAATTCCC to CCGAGAAA, the “PBM E-score” value rises from 0.013 to 0.247.

Compared with ATGCTGCC, GAAGCGCA is higher in “PBM E-score” value: -0.13 for the first, 0.027 for the second.

Compared with GCCTCTAC, CCAGCAGC is lower in “PBM E-score” value: -0.123 for the first, -0.253 for the second.

First: AGGGTCAA
Second: GGTAATAC
The “PBM E-score” value of the first is lower: -0.0744 for the first, 0.131 for the second.

Compared with ATAAGTTA, GTCGTAAC is higher in “PBM E-score” value: 0.0972 for the first, 0.397 for the second.

Going from AGCCCTTA to ACCGATAA, the “PBM E-score” value rises from -0.219 to 0.116.

Going from ACAATCAA to GACGGAGC, the “PBM E-score” value falls from 0.0141 to -0.0469.

Going from CCCTAGCG to AAATGATG, the “PBM E-score” value rises from -0.365 to 0.0115.

Going from AACGACAA to ATCGGTGA, the “PBM E-score” value falls from 0.41 to 0.0361.

Compared with AGTCCACG, ATTACCGA is higher in “PBM E-score” value: -0.159 for the first, 0.204 for the second.

Compared with CACATTCG, AGATTATC is lower in “PBM E-score” value: 0.182 for the first, -0.0971 for the second.

Compared with AATGCTCA, CTCCCTAA is higher in “PBM E-score” value: -0.135 for the first, 0.00444 for the second.

Going from AGCGAAGG to CCGTTATC, the “PBM E-score” value falls from 0.174 to -0.00824.

Compared with CTTTCCGA, ATGACCGC is lower in “PBM E-score” value: 0.0876 for the first, -0.0791 for the second.

Compared with CGCGAACA, AATTGCTC is lower in “PBM E-score” value: 0.19 for the first, -0.129 for the second.

Compared with ACTGATCA, CCGCTTTA is higher in “PBM E-score” value: -0.0874 for the first, 0.046 for the second.

Going from ATAGATTA to GCCCGAAA, the “PBM E-score” value rises from 0.0844 to 0.114.

Compared with GCCGTCCA, CATCGCAG is higher in “PBM E-score” value: -0.149 for the first, -0.0703 for the second.

Going from GGGTGTTA to AGACGCTG, the “PBM E-score” value falls from -0.174 to -0.187.

First: GGCTTCCA
Second: ATGATAAC
The “PBM E-score” value of the first is lower: -0.312 for the first, 0.0703 for the second.

Going from ATGCAACG to AGGTATGA, the “PBM E-score” value falls from 0.168 to -0.00382.

First: ACAACGTC
Second: GGATTCCA
The “PBM E-score” value of the first is higher: 0.0302 for the first, -0.03 for the second.

Going from CACGGGTC to CGCCCCTC, the “PBM E-score” value rises from -0.15 to -0.0406.

Going from CAGATCTA to ATCACATA, the “PBM E-score” value rises from -0.184 to 0.0886.

Going from CACCATGA to GACGGTAC, the “PBM E-score” value rises from -0.188 to 0.167.

First: GATGAGCC
Second: ACTTCTCT
The “PBM E-score” value of the first is lower: -0.212 for the first, -0.0524 for the second.

Compared with CTGACTTA, AATTGCCC is lower in “PBM E-score” value: -0.0814 for the first, -0.214 for the second.

Going from GAGACGGA to TACCGTGA, the “PBM E-score” value falls from -0.0767 to -0.111.

Compared with CTTACATC, ACTGTCAA is lower in “PBM E-score” value: 0.0147 for the first, -0.0365 for the second.

First: ATGGTGCA
Second: CTTGAGTC
The “PBM E-score” value of the first is lower: -0.097 for the first, 0.0219 for the second.

Compared with ATAGAGCG, CCAGAACG is higher in “PBM E-score” value: -0.0931 for the first, 0.197 for the second.

First: ATCGCCCG
Second: ACCGGTCA
The “PBM E-score” value of the first is higher: 0.067 for the first, 0.00026 for the second.

Going from AGCAGGCT to CCATCGTC, the “PBM E-score” value rises from -0.23 to 0.00759.

First: CACTGGTA
Second: AATAGAAT
The “PBM E-score” value of the first is lower: -0.0898 for the first, -0.0663 for the second.

First: GGTACACC
Second: ATCACTAG
The “PBM E-score” value of the first is higher: 0.0576 for the first, -0.0424 for the second.

Going from GTACGCAC to GAGTCCAA, the “PBM E-score” value falls from 0.264 to -0.2.

First: CAGCTGTA
Second: TATTCGAA
The “PBM E-score” value of the first is lower: 0.0261 for the first, 0.0638 for the second.

First: CACCGGTA
Second: TGACGGCA
The “PBM E-score” value of the first is higher: -0.0461 for the first, -0.198 for the second.

Compared with CAACAGAC, AATGTACT is lower in “PBM E-score” value: 0.0564 for the first, 0.013 for the second.

First: CTAGTCCC
Second: CAGAAAAC
The “PBM E-score” value of the first is lower: -0.258 for the first, -0.0302 for the second.

Going from ACGGCTCG to GTCAACAC, the “PBM E-score” value falls from 0.321 to -0.109.

Compared with CCGTGTGA, CGTGCAGA is higher in “PBM E-score” value: 0.0262 for the first, 0.0399 for the second.

Going from TCTCGGAA to CATTCGAG, the “PBM E-score” value falls from 0.159 to 0.146.

Going from AATTAAGG to AGCCAAAG, the “PBM E-score” value falls from -0.141 to -0.144.

First: CAGGGAAC
Second: AAGAACCA
The “PBM E-score” value of the first is higher: 0.216 for the first, 0.0315 for the second.

Going from AATTCAGT to AATACGCT, the “PBM E-score” value rises from -0.189 to 0.121.

Going from AAATGTGC to TGCGACCA, the “PBM E-score” value rises from -0.00196 to 0.215.

Going from GGCTCCGA to AATTACAT, the “PBM E-score” value rises from -0.099 to 0.115.

First: CGGGACAA
Second: CAGATGGC
The “PBM E-score” value of the first is lower: -0.107 for the first, 0.0388 for the second.

First: ACATGAAA
Second: CATATGGC
The “PBM E-score” value of the first is lower: -0.0889 for the first, 0.0588 for the second.

First: GTTGGTGA
Second: ATTTGAGG
The “PBM E-score” value of the first is higher: 0.00215 for the first, -0.153 for the second.

First: GGTCACTA
Second: GGCACCAA
The “PBM E-score” value of the first is lower: -0.0707 for the first, -0.00421 for the second.

Compared with ATTCGGAC, GATGTAGA is lower in “PBM E-score” value: 0.163 for the first, -0.271 for the second.

Compared with ACTAATAT, AACGCAAC is higher in “PBM E-score” value: 0.11 for the first, 0.145 for the second.
